Test results reported in article PMC4941644.
No constants are given. Whether binding was seen depends on the method and setting. Binding seen in cells or lysates may run through a third protein. Some entries that bind do so weakly or less than the wild type.

Amino acid sequences for entries named in this document (tags omitted). A change or cut given only in a name is not applied to a line headed by its entry. Residues count along the entry.
UniProt P25105: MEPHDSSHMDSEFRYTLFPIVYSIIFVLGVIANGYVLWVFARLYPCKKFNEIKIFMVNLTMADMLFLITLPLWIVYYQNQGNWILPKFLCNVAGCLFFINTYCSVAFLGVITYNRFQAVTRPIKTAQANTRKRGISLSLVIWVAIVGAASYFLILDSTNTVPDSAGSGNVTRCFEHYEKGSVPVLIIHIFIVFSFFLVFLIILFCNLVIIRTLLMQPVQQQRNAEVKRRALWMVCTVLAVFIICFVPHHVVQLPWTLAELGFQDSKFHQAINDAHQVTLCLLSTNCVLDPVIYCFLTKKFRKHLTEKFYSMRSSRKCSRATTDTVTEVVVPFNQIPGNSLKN
311stop PTAFR: residues 1-310 of P25105
UniProt Q14974: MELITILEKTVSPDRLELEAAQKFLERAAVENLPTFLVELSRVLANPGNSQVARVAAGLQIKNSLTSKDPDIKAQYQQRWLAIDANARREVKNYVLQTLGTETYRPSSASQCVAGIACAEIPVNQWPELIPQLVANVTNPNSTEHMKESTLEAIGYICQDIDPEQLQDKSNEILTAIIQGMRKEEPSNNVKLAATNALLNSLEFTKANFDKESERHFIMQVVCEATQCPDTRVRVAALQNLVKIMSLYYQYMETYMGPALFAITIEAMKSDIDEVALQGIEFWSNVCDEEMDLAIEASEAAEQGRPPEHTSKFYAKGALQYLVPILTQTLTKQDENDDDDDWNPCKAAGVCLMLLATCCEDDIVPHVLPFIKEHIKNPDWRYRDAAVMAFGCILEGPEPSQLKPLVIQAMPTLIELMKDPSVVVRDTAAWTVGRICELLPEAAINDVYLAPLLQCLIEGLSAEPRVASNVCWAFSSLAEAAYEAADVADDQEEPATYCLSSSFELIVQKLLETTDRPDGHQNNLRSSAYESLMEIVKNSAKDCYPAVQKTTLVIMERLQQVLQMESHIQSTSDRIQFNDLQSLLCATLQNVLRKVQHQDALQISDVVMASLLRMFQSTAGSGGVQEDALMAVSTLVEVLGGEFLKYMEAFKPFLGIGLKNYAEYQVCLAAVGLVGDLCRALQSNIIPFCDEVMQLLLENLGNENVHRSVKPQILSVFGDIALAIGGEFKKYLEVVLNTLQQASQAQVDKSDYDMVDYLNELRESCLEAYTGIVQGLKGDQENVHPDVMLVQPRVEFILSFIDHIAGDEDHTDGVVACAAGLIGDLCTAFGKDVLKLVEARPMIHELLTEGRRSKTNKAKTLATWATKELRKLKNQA
UniProt P20339: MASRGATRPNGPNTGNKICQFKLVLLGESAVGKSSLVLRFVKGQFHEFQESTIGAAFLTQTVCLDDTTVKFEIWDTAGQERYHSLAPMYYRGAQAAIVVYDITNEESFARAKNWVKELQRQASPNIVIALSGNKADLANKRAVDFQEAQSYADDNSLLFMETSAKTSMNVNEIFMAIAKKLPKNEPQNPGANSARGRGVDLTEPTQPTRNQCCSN
UniProt P62491: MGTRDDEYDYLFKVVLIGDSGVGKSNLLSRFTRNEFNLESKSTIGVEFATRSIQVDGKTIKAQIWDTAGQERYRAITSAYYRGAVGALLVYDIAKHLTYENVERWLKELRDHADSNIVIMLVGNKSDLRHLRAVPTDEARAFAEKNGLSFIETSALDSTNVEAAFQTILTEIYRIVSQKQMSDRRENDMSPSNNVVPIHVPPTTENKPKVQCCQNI
UniProt P51149: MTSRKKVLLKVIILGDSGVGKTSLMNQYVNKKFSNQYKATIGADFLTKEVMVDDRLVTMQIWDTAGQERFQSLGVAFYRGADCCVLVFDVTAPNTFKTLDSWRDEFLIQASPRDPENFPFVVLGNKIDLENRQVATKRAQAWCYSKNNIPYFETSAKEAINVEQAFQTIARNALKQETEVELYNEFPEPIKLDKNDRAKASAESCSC

Key:
[1] = molecular target: platelet-activating factor receptor (PTAFR), endogenous in human retinal microvascular endothelial cells (human (endogenous in hRMECs)) (UniProt P25105); assay: co-IP; hRMECs stimulated with PAF C-16 (100 nM), lysed at the indicated time-points; RIPA lysates (500 ug), primary antibody with Protein A/G PLUS-Agarose overnight at 4 °C; PTAFR blotted as loading control of the precipitate
[2] = molecular target: platelet-activating factor receptor (PTAFR), endogenous in human retinal microvascular endothelial cells (human (endogenous in hRMECs)) (UniProt P25105); assay: co-IP; hRMECs without PAF C-16 stimulation (first column of Figure 3a); RIPA lysates (500 ug), primary antibody with Protein A/G PLUS-Agarose overnight at 4 °C
[3] = molecular target: importin β1 (human (endogenous in hRMECs)) (UniProt Q14974); assay: co-IP; hRMEC lysates, co-immunoprecipitation with importin β1 (Supplementary Figure S3B)
[4] = molecular target: wild-type PTAFR (as compared with the 311stop mutant) (human) (UniProt P25105); assay: co-IP; co-immunoprecipitation of IPO5 with wild-type or 311stop PTAFR (Supplementary Figure S3C); cells not given
311stop PTAFR (human) = 311stop PTAFR (human) (UniProt P25105); assay: as above

For RAB5A (from UniProt P20339 1-215), the binding [1] was “binds” and the binding [2] was “no binding (condition: without PAF C-16 stimulation)”.

With “platelet-activating factor receptor (PTAFR), endogenous in human retinal microvascular endothelial cells (from UniProt P25105 1-342)” the binding [3] was “no binding”.

In the case of RAB11A (from UniProt P62491 1-216), the binding [3] is reported as “no binding”, the binding [1] is reported as “binds” and the binding [2] is reported as “binds”.

For RAB7A (from UniProt P51149 1-207), the binding [1] was “binds” and the binding [2] was “no binding (condition: without PAF C-16 stimulation)”.

B1: importin-5 (protein, UniProt O00410 1-1097)
chain: MAAAAAEQQQFYLLLGNLLSPDNVVRKQAEETYENIPGQSKITFLLQAIRNTTAAEEARQMAAVLLRRLLSSAFDEVYPALPSDVQTAIKSELLMIIQMETQSSMRKKVCDIAAELARNLIDEDGNNQWPEGLKFLFDSVSSQNVGLREAALHIFWNFPGIFGNQQQHYLDVIKRMLVQCMQDQEHPSIRTLSARATAAFILANEHNVALFKHFADLLPGFLQAVNDSCYQNDDSVLKSLVEIADTVPKYLRPHLEATLQLSLKLCGDTSLNNMQRQLALEVIVTLSETAAAMLRKHTNIVAQTIPQMLAMMVDLEEDEDWANADELEDDDFDSNAVAGESALDRMACGLGGKLVLPMIKEHIMQMLQNPDWKYRHAGLMALSAIGEGCHQQMEGILNEIVNFVLLFLQDPHPRVRYAACNAVGQMATDFAPGFQKKFHEKVIAALLQTMEDQGNQRVQAHAAAALINFTEDCPKSLLIPYLDNLVKHLHSIMVLKLQELIQKGTKLVLEQVVTSIASVADTAEEKFVPYYDLFMPSLKHIVENAVQKELRLLRGKTIECISLIGLAVGKEKFMQDASDVMQLLLKTQTDFNDMEDDDPQISYMISAWARMCKILGKEFQQYLPVVMGPLMKTASIKPEVALLDTQDMENMSDDDGWEFVNLGDQQSFGIKTAGLEEKSTACQMLVCYAKELKEGFVEYTEQVVKLMVPLLKFYFHDGVRVAAAESMPLLLECARVRGPEYLTQMWHFMCDALIKAIGTEPDSDVLSEIMHSFAKCIEVMGDGCLNNEHFEELGGILKAKLEEHFKNQELRQVKRQDEDYDEQVEESLQDEDDNDVYILTKVSDILHSIFSSYKEKVLPWFEQLLPLIVNLICPHRPWPDRQWGLCIFDDVIEHCSPASFKYAEYFLRPMLQYVCDNSPEVRQAAAYGLGVMAQYGGDNYRPFCTEALPLLVRVIQSADSKTKENVNATENCISAVGKIMKFKPDCVNVEEVLPHWLSWLPLHEDKEEAVQTFNYLCDLIESNHPIVLGPNNTNLPKIFSIIAEGEMHEAIKHEDPCAKRLANVVRQVQTSGGLWTECIAQLSPEQQAAIQELLNSA
B1 was tested, and the binding [4] was “binds” and the binding (311stop PTAFR (human)) was “no binding”.
